The supplement of paper PMC10986608
Some of the results follow. Most values come without repeats; read them as rough.

test system: Candida albicans DPL-15; test: growth (OD600) after compound treatment (apparently relative to screen median) (relative growth (fraction; screen median 1.02)); DPL-15 is a caspofungin-resistant clinical isolate; higher = more fungal growth (less antifungal activity); conditions: 25 µM; RPMI 1640; 48 h; 30 °C

| SMILES | growth |
| --- | --- |
| C=CCC1=C(OC)[C@]2(CC=C)CC(=C)C[C@](C(=O)C(C)C)(C1=O)C2=O | 1.16 |
| CC1=C(C(N)=O)C(c2cccs2)NC(=O)N1 (centres undefined) | 0.969 |
| CC(C)CC(CCc1ccccc1)OS(=O)(=O)NC(C)(C)C (centres undefined) | 0.821 |
| CC#CCN1C(=O)NC(c2ccccc2)C(C(=O)OC)=C1C (centres undefined) | 0.949 |
| COc1cccc(CO[C@H]2CC=C(c3ccc(Br)cc3)O[C@@H]2CO)c1 | 0.873 |
| CNC(=O)[C@@H]1C[C@@]2(c3c(C=O)[nH]c4ccccc34)c3ccccc3N(C(=O)OCc3ccccc3)[C@H]2N1C(=O)OC(C)(C)C | 0.888 |
| O=Cc1c(O)c(C=O)c(O)c(C(c2ccccc2)N2CCOCC2)c1O (centres undefined) | 0.907 |
| CC1=C[C@H]2[C@@H]3CO[C@@]2(C)[C@@](C)(C3)C1=O | 0.981 |
| CC1=NCCNC2=C1C(c1ccc(C)cc1)NC2=O (centres undefined) | 1.07 |
| COc1cc(OC)c(OC)cc1/C=C/C(C)=O | 0.977 |
| Cc1nn(C)c2c1C(c1ccc(F)cc1)NC2=O (centres undefined) | 1.07 |
| COc1ccccc1C#C[C@@H]1C=C[C@@H](OC(C)=O)[C@@H](COC(C)=O)O1 | 0.89 |
| C=CCN1C(=O)C2=C(C(C)=NCC(C)(C)N2)C1c1cccc(C(F)(F)F)c1 (centres undefined) | 0.938 |
| COc1ccc(I)c2oc(C(=O)O)cc(=O)c12 | 1.08 |
| O[C@@H](c1ccccc1I)c1cc2c3c(ccc4c3c1OCO4)OCO2 | 1.07 |
| CC(C)Oc1cc2c(cc1C1(c3cc4c(cc3OC(C)C)OCO4)C(=O)Nc3cc(F)ccc31)OCO2 | 0.932 |
| COC(=O)C1=C(CCl)NC(=O)NC1c1cccc(C#N)c1 (centres undefined) | 1.07 |
| Cc1cc2c(c(=O)o1)[C@@]1(C(=O)N(C)c3cccc(Br)c31)C1=C(CCCC1=O)O2 | 0.976 |
| CCc1ccccc1-n1nc(C)c2c1C(=O)NC2c1ccc(C)cc1 (centres undefined) | 1.07 |
| CC(C)Cc1n[nH]c2c1C(c1ccc(F)cc1)N(Cc1ccc(C(F)(F)F)cn1)C2=O (centres undefined) | 1.03 |
| C=C1CC[C@H]2[C@@H]3C4=C(O[C@]3(C(C)C)O[C@]2(C)CC[C@@H]2[C@@H]1CC2(C)C)C(C)(C)C(=O)C(C)(C)C4=O | 0.92 |
| C=C(C)C[C@@]1(c2ccccc2)Oc2ccccc2C2=NCCN=C21 | 0.97 |
| COc1ccc(C2=C(C(=O)NCCN3CCOCC3)C3C(N2)C(=O)C[C@@H](c2ccccc2)[C@@H]3C)cc1 (some centres undefined) | 1 |
| COc1cc(O)c(C(=O)COCc2ccccc2)c(OC)c1 | 0.912 |
